Measured values reported in the supplement of paper PMC4604168 (melanoma cell lines).
This is one part of the list. Repeats are few or missing, and single values can be far off.

What was measured:
Test in all cases: cell count relative to DMSO control; melanoma cells; higher = more viable cells
Conditions in all cases: library dose: low library concentration; 72 h
[1] = test system: MZ2-MEL
[2] = test system: MeWo
[3] = test system: RPMI7951
[4] = test system: RVH-421
[5] = test system: SkMel28
[6] = test system: SkMel2
[7] = test system: SkMel30
[8] = test system: SkMel5
[9] = test system: UACC257
[10] = test system: UACC62
[11] = test system: WM115
[12] = test system: WM1716
[13] = test system: WM1745
[14] = test system: WM3526
[15] = test system: WM3619
[16] = test system: WM451Lu
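Note: cell number obtained by counting DAPI-stained nuclei in high-throughput microscope images with image analysis software, screen run in 1,536-well plates.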

| Structure (SMILES) | cell count [1] [%] | cell count [2] [%] | cell count [3] [%] | cell count [4] [%] | cell count [5] [%] | cell count [6] [%] | cell count [7] [%] | cell count [8] [%] | cell count [9] [%] | cell count [10] [%] | cell count [11] [%] | cell count [12] [%] | cell count [13] [%] | cell count [14] [%] | cell count [15] [%] | cell count [16] [%] |
| --- | --- | --- | --- | --- | --- | --- | --- | --- | --- | --- | --- | --- | --- | --- | --- | --- |
| O=c1[nH]nc(Sc2ncc([N+](=O)[O-])s2)n1-c1ccc2c(c1)OCCO2 + O=c1cc(-c2cccc3c2Sc2ccccc2S3)oc(N2CCOCC2)c1 [KU55933] (first compound 0.2 µM, partner dose 1 µM) | 102 | 96 | 93.5 | 110 | 71.9 | 98.5 | 90.8 | 97.5 | 85.6 | 98.6 | 90.6 | 95.3 | 106 | 80.7 | 87.6 | 87.2 |
| O=c1[nH]nc(Sc2ncc([N+](=O)[O-])s2)n1-c1ccc2c(c1)OCCO2 + Oc1nc(-c2ccc(C(F)(F)F)cc2)nc2c1CSCC2 [XAV939] (first compound 0.2 µM, partner dose 2 µM) | 95.4 | 100 | 100 | 104 | 136 | 105 | 111 | 79.2 | 86.2 | 115 | 87.3 | 64.1 | 94.2 | 98.9 | 95.5 | 84.1 |
| O=c1[nH]nc(Sc2ncc([N+](=O)[O-])s2)n1-c1ccc2c(c1)OCCO2 + O=C1NC(=O)/C(=C/c2ccc(-c3ccc(F)cc3O)o2)S1 [AS252424] (first compound 0.2 µM, partner dose 1 µM) | 103 | 87.2 | 97.9 | 90.6 | 105 | 104 | 102 | 118 | 100 | 99.3 | 91.8 | 96.7 | 95.5 | 101 | 117 | 112 |
| COc1cc(Nc2ncc(F)c(Nc3ccc4c(n3)NC(=O)C(C)(C)O4)n2)cc(OC)c1OC [Tamatinib] + Cn1cncc1[C@@](N)(c1ccc(Cl)cc1)c1ccc2c(c1)c(-c1cccc(Cl)c1)cc(=O)n2C [tipifarnib] (first compound 0.4 µM, partner dose 0.01 µM) | 84.7 | 79.2 | 70 | 82.5 | 71 | 75.4 | 65.7 | 2.43 | 59.1 | 56.6 | 61.1 | 66.1 | 67.5 | 69.5 | 53.2 | 92.7 |
| O=C(Nc1cccc(Cl)c1)Nc1ncc(CCNc2ncnc3ccsc23)s1 + CN(C)S(=O)(=O)c1ccc2c(c1)/C(=C/c1cc3c([nH]1)CCCC3)C(=O)N2 [SU6656] (first compound 0.0008 µM, partner dose 0.4 µM) | 103 | 86.1 | 101 | 94.4 | 83.2 | 100 | 95 | 96.5 | 81.5 | 74.6 | 45.4 | 116 | 94 | 87.7 | 125 | 90.6 |
| C[C@@H]1CCN(C(=O)CC#N)C[C@@H]1N(C)c1ncnc2[nH]ccc12 + CN(NC(=O)CC(=O)NN(C)C(=S)c1ccccc1)C(=S)c1ccccc1 [STA4783] (first compound 1 µM, partner dose 0.006 µM) | 110 | 91.5 | 95.3 | 93 | 92.4 | 83.7 | 98.2 | 107 | 122 | 101 | 88.1 | 88.6 | 44.2 | 95 | 84 | 104 |
| COc1cc(Nc2ncc(F)c(Nc3ccc4c(n3)NC(=O)C(C)(C)O4)n2)cc(OC)c1OC [Tamatinib] + CC1(C)NC(=O)N(c2ccc([N+](=O)[O-])c(C(F)(F)F)c2)C1=O [nilutamide] (first compound 0.4 µM, partner dose 1 µM) | 88.9 | 93.2 | 91.7 | 114 | 76.9 | 95.6 | 111 | 89.9 | 75.3 | 80.6 | 89.2 | 91.7 | 67.6 | 77.3 | 110 | 116 |
| O=c1[nH]nc(Sc2ncc([N+](=O)[O-])s2)n1-c1ccc2c(c1)OCCO2 + CC(C)CCN1c2nc(Nc3cc(F)c(O)c(F)c3)ncc2N(C)C(=O)C1C [BID1870] (first compound 0.2 µM, partner dose 0.2 µM) | 103 | 97.5 | 111 | 93.4 | 81.5 | 101 | 89.1 | 128 | 99.5 | 103 | 102 | 109 | 106 | 88 | 100 | 90.2 |
| O=c1[nH]nc(Sc2ncc([N+](=O)[O-])s2)n1-c1ccc2c(c1)OCCO2 + CC(=O)c1c(C)c2cnc(Nc3ccc(N4CCNCC4)cn3)nc2n(C2CCCC2)c1=O [palbociclib] (first compound 0.2 µM, partner dose 0.04 µM) | 82.3 | 82.9 | 75.3 | 64.1 | 103 | 91.2 | 70.2 | – | – | 76 | 76.5 | 73.4 | 83.5 | 62.9 | 87.5 | 82.2 |
| O=c1[nH]nc(Sc2ncc([N+](=O)[O-])s2)n1-c1ccc2c(c1)OCCO2 + CCCS(=O)(=O)Nc1ccc(F)c(C(=O)c2c[nH]c3ncc(Cl)cc23)c1F [PLX4720] (first compound 0.2 µM, partner dose 0.08 µM) | 92.7 | 93.9 | 118 | 122 | 80.5 | 101 | 95.5 | – | – | 64.4 | 90.7 | 136 | 89.1 | 83.9 | 96.6 | 103 |
| O=c1[nH]nc(Sc2ncc([N+](=O)[O-])s2)n1-c1ccc2c(c1)OCCO2 + C=C(c1ccc(C(=O)O)cc1)c1cc2c(cc1C)C(C)(C)CCC2(C)C [Bexarotene] (first compound 0.2 µM, partner dose 2 µM) | 84.8 | 86.7 | 82.7 | 109 | 81.1 | 90.2 | 105 | – | – | 100 | 88.5 | 89 | 105 | 77.2 | 159 | 92.2 |
| O=c1[nH]nc(Sc2ncc([N+](=O)[O-])s2)n1-c1ccc2c(c1)OCCO2 + C=CCNC1=C2C[C@@H](C)C[C@H](OC)[C@H](O)[C@@H](C)/C=C(\C)[C@H](OC(N)=O)[C@@H](OC)/C=C\C=C(/C)C(=O)NC(=CC1=O)C2=O [Tanespimycin] (first compound 0.2 µM, partner dose 0.002 µM) | 93.2 | 102 | 72.3 | 92.4 | 94.4 | 95.5 | 105 | – | – | 92.7 | 88 | 88.9 | 111 | 93.4 | 93.5 | 89.7 |
| O=c1[nH]nc(Sc2ncc([N+](=O)[O-])s2)n1-c1ccc2c(c1)OCCO2 + CC1(C)CCC(c2ccc(Cl)cc2)=C(CN2CCN(c3ccc(C(=O)NS(=O)(=O)c4ccc(N[C@H](CCN5CCOCC5)CSc5ccccc5)c(S(=O)(=O)C(F)(F)F)c4)cc3)CC2)C1 [ABT263] (first compound 0.2 µM, partner dose 0.4 µM) | 94 | 64.5 | 69.6 | 45.1 | 86.3 | 89.6 | 76.8 | – | – | 94.2 | 85.7 | 72.8 | 17.3 | 86.9 | 61.4 | 79 |
| O=c1[nH]nc(Sc2ncc([N+](=O)[O-])s2)n1-c1ccc2c(c1)OCCO2 + Nc1ccn([C@@H]2O[C@H](CO)[C@@H](O)C2(F)F)c(=O)n1 [gemcitabine] (first compound 0.2 µM, partner dose 0.0004 µM) | 95.9 | 92.3 | 102 | 136 | 79.8 | 87.8 | 87.8 | – | – | 103 | 102 | 97.5 | 74.4 | 92.8 | 83.4 | 87.8 |
| O=c1[nH]nc(Sc2ncc([N+](=O)[O-])s2)n1-c1ccc2c(c1)OCCO2 + CCN(CC)CCNC(=O)c1c(C)[nH]c(/C=C2\C(=O)Nc3ccc(F)cc32)c1C [sunitinib] (first compound 0.2 µM, partner dose 0.4 µM) | 105 | 86.3 | 93 | 106 | 103 | 102 | 74.7 | – | – | 86.9 | 95.4 | 120 | 96.1 | 129 | 99.5 | 86 |
| O=c1[nH]nc(Sc2ncc([N+](=O)[O-])s2)n1-c1ccc2c(c1)OCCO2 + Cn1c(=O)n(-c2ccc(C(C)(C)C#N)cc2)c2c3cc(-c4cnc5ccccc5c4)ccc3ncc21 [NVP-BEZ235] (first compound 0.2 µM, partner dose 0.004 µM) | 95.7 | 94.5 | 90.6 | 151 | 100 | 102 | 76.1 | – | – | 96 | 99.6 | 101 | 93.5 | 79.8 | 76 | 93.9 |
| O=c1[nH]nc(Sc2ncc([N+](=O)[O-])s2)n1-c1ccc2c(c1)OCCO2 + Clc1ccc(Nc2nnc(Cc3ccncc3)c3ccccc23)cc1 [vatalanib] (first compound 0.2 µM, partner dose 2 µM) | 95.3 | 76.8 | 89.6 | 95.4 | 85.3 | 93 | 89 | – | – | 76.7 | 87.5 | 89.2 | 88.2 | 85 | 88.8 | 83.6 |
| O=c1[nH]nc(Sc2ncc([N+](=O)[O-])s2)n1-c1ccc2c(c1)OCCO2 + O=C(O)[C@@H]1[O][Sb](=[O])([O][Sb]2(=[O])[O][C@H]([C@H](O)CO)[C@H](O)[C@H](C(=O)O)[O]2)[O][C@H]([C@H](O)CO)[C@@H]1O [stibogluconate] (first compound 0.2 µM, partner dose 2 µM) | 112 | 111 | 113 | 85.8 | 102 | 102 | 94.7 | – | – | 124 | 108 | 102 | 87.1 | 89.3 | 85 | 84.2 |
| O=c1[nH]nc(Sc2ncc([N+](=O)[O-])s2)n1-c1ccc2c(c1)OCCO2 + COc1ccc(Cl)c(Nc2nc3ccccc3nc2NS(=O)(=O)c2cccc(NC(=O)C(C)(C)N)c2)c1 [XL147] (first compound 0.2 µM, partner dose 0.8 µM) | 96.1 | 94.2 | 96.8 | 86.7 | 94.6 | 98.4 | 88.7 | – | – | 91.9 | 105 | 110 | 73.6 | 108 | 92.2 | 78.7 |
| O=c1[nH]nc(Sc2ncc([N+](=O)[O-])s2)n1-c1ccc2c(c1)OCCO2 + CN1CCN(c2ccc3nc(-c4c(N)c5c(F)cccc5[nH]c4=O)[nH]c3c2)CC1 [Dovitinib] (first compound 0.2 µM, partner dose 0.1 µM) | 96.5 | 95 | 96 | 90.4 | 95 | 108 | 84.4 | – | – | 84.4 | 96.9 | 88.5 | 96.1 | 92.1 | 118 | 121 |
